# From the supplement of paper PMC9446081
# The whole screen tested about 39,000 compounds, of which about 220 (0.56%) showed activity. The list shows a part of the results.
# Test system: Escherichia coli K-12 BW25113
# Assay: relative growth (OD600 normalised to plate interquartile mean) (fraction); higher = less growth inhibition, active = 0.2 or less
# Conditions: 50 µM; LB; incubation time: overnight (16-24 h)
# 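Further: static incubation at 37 °C against the wild-type strain, values averaged over two biological replicates.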
row,Compound,relative growth
1,C[C@H](CO)N1C[C@H](C)[C@H](CN(C)S(=O)(=O)c2ccc(-c3ccccc3)cc2)OCc2cn(nn2)CCCC1=O,inactive: 1.02
2,COC(=O)NCCOc1nc(N(C)C)nc(N(C)C)n1,inactive: 1.01
3,Cn1cnc(CCNC(=O)C[C@H]2CC[C@@H]3[C@H](COC[C@H](O)CN3C(=O)Nc3ccc(C(F)(F)F)cc3)O2)c1,inactive: 0.934
4,C[C@@H]1CN([C@H](C)CO)C(=O)Cc2cc(NS(=O)(=O)c3ccccc3)ccc2O[C@H]1CN(C)S(C)(=O)=O,inactive: 0.995
5,C[C@H]1CN([C@@H](C)CO)C(=O)c2cc(NC(=O)Cn3cnnn3)ccc2O[C@@H]1CN(C)CC1CCCCC1,inactive: 0.992
6,CS(=O)(=O)N1CCCn2c(nnc2Cn2cccn2)C1,inactive: 0.961
7,C[C@H](CO)N1C[C@H](C)[C@@H](CN(C)C(=O)Nc2cccc3ccccc23)OCCCC[C@H](C)Oc2ccc(NC(=O)CCCN(C)C)cc2C1=O,inactive: 0.994
8,C[C@H](CO)N1C[C@H](C)[C@@H](CN(C)S(C)(=O)=O)Oc2ccc(NC(=O)Cc3ccccc3)cc2CC1=O,inactive: 1.01
9,CC(C)NC(=O)Nc1cccc2c1O[C@H](CN(C)S(=O)(=O)c1ccc(Cl)cc1)[C@H](C)CN([C@@H](C)CO)C2=O,inactive: 0.978
10,COc1ccc(CN(C)C[C@@H]2Oc3c(NS(=O)(=O)c4c(C)noc4C)cccc3C(=O)N([C@@H](C)CO)C[C@@H]2C)cc1,inactive: 1
11,C[C@H](CO)N1C[C@H](C)[C@@H](CN(C)Cc2ccncc2)Oc2cc(C#CCN(C)C)ccc2S1(=O)=O,inactive: 0.992
12,C=CCOC(=O)[C@H]1[C@@H]2C(=O)O[C@@H](c3ccccc3)[C@@H](c3ccccc3)N2[C@@H](c2ccc(OCCOC(=O)[C@H]3C[C@H]4C(=O)N[C@@H](CCCCNC(C)=O)C(=O)N4[C@H]3c3cccc(OCCO)c3)cc2)[C@]12C(=O)Nc1ccc(I)cc12,inactive: 1.07
13,C=CCSc1n[nH]c2nc(=O)cc(N)n12,inactive: 0.993
14,CNC[C@@H]1Oc2cc(C#CCN(C)C)ccc2S(=O)(=O)N([C@H](C)CO)C[C@@H]1C,inactive: 0.975
15,Cc1noc(C)c1S(=O)(=O)N(C)C[C@@H]1Oc2ccc(NS(=O)(=O)c3ccc(Cl)cc3)cc2CC(=O)N([C@H](C)CO)C[C@@H]1C,inactive: 1.01
16,C[C@H](CO)N1C[C@H](C)[C@H](CN(C)S(=O)(=O)c2ccc(F)cc2)Oc2ccc(NS(C)(=O)=O)cc2C1=O,inactive: 1
17,C[C@@H]1CN([C@@H](C)CO)C(=O)c2cc(NS(=O)(=O)c3ccccc3)ccc2O[C@@H]1CN(C)S(=O)(=O)c1cccs1,inactive: 0.99
18,Nc1oncc1-c1ccc(Cl)cc1,inactive: 0.968
19,CC(C)NC(=O)N(C)C[C@@H]1Oc2ccc(NS(=O)(=O)c3cccs3)cc2C(=O)N([C@@H](C)CO)C[C@H]1C,inactive: 0.979

row,Compound,relative growth
1,COCC#Cc1ccc2c(c1)O[C@H](CN(C)Cc1ccccc1F)[C@@H](C)CN([C@H](C)CO)S2(=O)=O,inactive: 1.06
2,Cc1noc(C)c1NC(=O)Nc1ccc2c(c1)CC(=O)N([C@H](C)CO)C[C@H](C)[C@H](CN(C)S(=O)(=O)c1c(C)noc1C)O2,inactive: 1.02
3,COc1ccc(CN(C)C[C@@H]2Oc3ccc(NC(=O)Cn4cnnn4)cc3CC(=O)N([C@H](C)CO)C[C@@H]2C)cc1,inactive: 1.02
4,CC[C@H]1OC(=O)C[C@@H](O)[C@H](C)[C@@H](O[C@@H]2O[C@H](C)[C@@H](O)[C@H](N(C)C)[C@H]2O)[C@@H](CCN2C[C@H](C)C[C@H](C)C2)C[C@@H](C)C(=O)/C=C/C(C)=C/[C@@H]1CO[C@@H]1O[C@H](C)[C@@H](O)[C@@H](OC)[C@H]1OC,inactive: 0.325
5,Cc1ccc2nc(CN)cn2c1,inactive: 0.97
6,C[C@@H]1CN([C@H](C)CO)C(=O)c2cc(N(C)C)ccc2O[C@@H](C)CCCCO[C@@H]1CN(C)C(=O)CCCN(C)C,inactive: 0.978
7,COc1ccc([Si](C)(C)[C@@H]2[C@@H](CCOC(=O)NCCCCCC(=O)NO)O[C@]3(C(=O)N(Cc4ccccc4)c4ccc(I)cc43)[C@H]2C)cc1,inactive: 1.02
8,OC[C@H]1O[C@@H](Oc2c[nH]c3ccccc23)[C@H](O)[C@@H](O)[C@@H]1O,inactive: 0.991
9,NC1CCC(N[C@@H]2C[C@H]2c2ccccc2)CC1 (stereo partly drawn),inactive: 0.986
10,C[C@H]1CN([C@@H](C)CO)C(=O)Cc2cc(NC(=O)Nc3ccccc3)ccc2O[C@H]1CN(C)Cc1ccc(-c2ccccc2)cc1,inactive: 0.995
11,C[C@@H]1CN([C@H](C)CO)C(=O)c2cc(NC(=O)Nc3ccc(F)cc3)ccc2O[C@@H]1CN(C)C(=O)Nc1ccc(C(F)(F)F)cc1,inactive: 0.946
12,CO[C@@H]1CN(C)C(=O)c2cc(NS(=O)(=O)c3ccccc3C)ccc2OC[C@H](C)N(S(C)(=O)=O)C[C@H]1C,inactive: 0.974
13,CCCN(CCC)S(=O)(=O)c1ccc(C(=O)N(c2cccc(SC)c2)[C@H]2OC(=O)c3ccccc32)cc1,inactive: 0.993
14,C[C@@H]1CN([C@H](C)CO)C(=O)Cc2cc(NC(=O)Cc3ccccc3)ccc2O[C@@H]1CN(C)Cc1ccc(-c2ccccc2)cc1,inactive: 1.01
15,Cc1noc(C)c1S(=O)(=O)N(C)C[C@@H]1Oc2ccc(NC(=O)Cc3ccccc3)cc2CC(=O)N([C@@H](C)CO)C[C@H]1C,inactive: 1.01
16,CN(Cn1[nH]c(=O)ccc1=O)c1ccccc1,inactive: 0.991
17,C[C@@H]1CCCCO[C@H](CN(C)Cc2ccc(C(=O)O)cc2)[C@H](C)CN([C@H](C)CO)C(=O)c2cc(NC(=O)NC3CCCCC3)ccc2O1,inactive: 0.979
18,Cc1noc(C)c1NC(=O)Nc1ccc2c(c1)C(=O)N([C@H](C)CO)C[C@H](C)[C@H](CN(C)Cc1ccc(C(F)(F)F)cc1)O2,inactive: 0.908
19,Cc1noc(C)c1S(=O)(=O)Nc1ccc2c(c1)C(=O)N([C@H](C)CO)C[C@@H](C)[C@H](CN(C)C(=O)Nc1ccc(F)cc1)OCCCC[C@@H](C)O2,inactive: 1.03
